# Experimental data from the supplement of paper PMC11417369.
# Some of the results follow.
# Test system: PfHDP1 homeodomain (GST-tagged)
# Assay: gcPBM binding intensity (ln(normalized median fluorescence intensity)); higher = stronger DNA binding
# Outline: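 Binding intensity is defined as the maximum Masliner-normalised natural-log median intensity across replicate spots for either probe orientation. It was measured on an Agilent 4 × 180k array of primer-extended double-stranded 36-bp intergenic genomic probes and negative controls, to which GST-tagged P. falciparum DNA-binding domains made in E. coli were applied for 1 h in 1× PBS with 1% milk, 0.2 mg/ml BSA, 0.5% salmon testes DNA and 0.03% Triton X-100. Detection was by Alexa488 anti-GST antibody and scanning at 488 nm.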
row,Sequence,gcPBM binding intensity (ln)
1,AAAAAAAAATTAATATATAAAAGGATATATATATAT [GTGCAC_negctrl_site449],8.92
2,GAATAATATATATATTGTACTTTTTATTTATATTAT [XGTACX_site3180],6.47
3,AAAATATAATATAATGCACACATAAAACAAAAAAAA [CACACA_site8989],9.76
4,CTTTTTTTTTTTTTTACACACCCAAATCACATACAT [CACACA_site4051],6.93
5,ATATATATATTTATATGTACGAAATATAAAAAAAAA [XGTACX_site5054],7.18
6,TATATATATATGTGTACACAATTTATCTGTATTTAT [CACACA_site5945],8.86
7,AAAAAAAAAAAAATACGTACATACATACCTACATAT [XGTACX_site233],6.34
8,AAGAAAAACTTTACGTGTACCAAACATCCTGCCAAC [XGTACX_site598],6.89
9,AGTGATACTAATTTTTGTACGCATAAAAGAATATTC [XGTACX_site6055],6.76
10,TATATTGATGATGATAGTACGTATGATTAGAAAAAA [XGTACX_site8989],6.58
11,ATAGACAGCGCACAAACACACAAACACCCACCCACA [CACACA_site8043],7.63
12,CATTAATAAAAAAAAAGTACAAAAAATATATATATT [XGTACX_site2091],6.88
13,AAAATAAAAATATTCACACATACAAAAATTATACAA [CACACA_site5136],6.48
14,ATAATATATATATATAGTACATATATATAATATTCT [XGTACX_site2445],6.2
15,ATTTTTTTACTGTAACCATATTTTTCCCTTTTATTC [CACACA_negctrl_site1143],6.81
16,TTTTTTTTTTTTTTTTGTACGTATCAAAAAATTTGT [XGTACX_site1023],6.28
17,AATCAATAAATAAAAACATGCATATATATATATATA [TGCATGCA_site438],9.42
18,AAAAATAAATTTAGTTGTACTTTATTATTTTAAATA [XGTACX_site3067],5.98
19,AAGACTTCTCCATATACACACACCAACAAATATAAA [CACACA_site2779],6.87
20,GTTTATTCATCATACGGTACACATAAATAATATATA [XGTACX_site6931],6.85
21,GTGCATATACAAATATGTACTTAAACGTTTTTTTTT [XGTACX_site7362],6.67
22,TTTTTCTTTTGATGTTGTACATATATATCATATAAT [XGTACX_site1189],6.5

row,Sequence,gcPBM binding intensity (ln)
1,TTCGTTTAAATCAAGTGTACATATTATATATAATAT [XGTACX_site7599],6.47
2,ATTTTTTTTTTTTTTTTTTGGTTTTCTTTAGGAGTT [CACACA_negctrl_site1258],5.85
3,GATGAATAAATCAAAGCACACATACACCCACATATA [CACACA_site7986],6.98
4,GAAATAAGTTAAAATAGTACGTAGTGTTCCTTAAGT [XGTACX_site6557],6.3
5,CGTTATATATGTATTACATGCAATATATGTACGTAA [TGCATGCA_site274],6.44
6,TAAATAATATCCCTTTGTACGTATTTTTTTTTATTA [XGTACX_site7303],6.51
7,TTAAAAATAATATATTGTACACATACTTATTTTAAT [XGTACX_site1348],6.47
8,TTAGGAAAACAAAAATGTACGCATATATATTATTGA [XGTACX_site8288],6.18
9,TTAATAAAAGCCCATGCACACCTTAGAAAGTTTTAT [CACACA_site8003],8.26
10,TGAGCTTCAACAATATGTACATAAAATATATTACAT [XGTACX_site4763],6.41
11,GTATTATAGTATAATACACACCCAAATATTAAAAAG [CACACA_site7404],7.16
12,TTTCTTAAAATGTTATGTACATATTTCGTTTCAAAG [XGTACX_site6102],6.32
13,TCTTTTTAATTTATATGTACTTATATTAATTATAAG [XGTACX_site7524],6.31
14,ATATATTTCAAAGGGGTGCAGGCATATTTAAGCAAA,6.8
15,TGCTTTATTATTTATTGTACATGTAAAATGAGAGAG [XGTACX_site2288],6.81
16,TTTGTTTAAATTAAATGTACATAAAGAATAATATAT [XGTACX_site5093],6.84
17,TAATAACTACAAAAAAAAAAGAAAAATAGAAAAAGG [CACACA_negctrl_site1102],6.44
18,TCGTGTTAAACTTTTACACACAAACTTGCAATAATT [CACACA_site7745],7.73
19,AATTATATGAAATAAACACACATATGTAATATTACA [CACACA_site1928],6.49
20,AAAACATTGTTGAACTGTTTTATTTATAAATATAAG [XGTACX_negctrl_site393],6.38
21,ATATATATACTGTGTACACACATATGTATTTATATA [CACACA_site4600],7.1
22,GGAAAATTATCAATAGCATGCAAAATGTGAATATTA [TGCATGCA_site901],7.04
